The list shows a part of the results. At the low end of the ranking the order means little. Measured with an extract: partners may take part in the binding.

This passage reports binding signal (log2 normalized intensity) results from article PMC10726135.

In the test the target is T1, HNF4alpha8 (COS-7 nuclear extract) (UniProt P41235-5).
T1 sequence: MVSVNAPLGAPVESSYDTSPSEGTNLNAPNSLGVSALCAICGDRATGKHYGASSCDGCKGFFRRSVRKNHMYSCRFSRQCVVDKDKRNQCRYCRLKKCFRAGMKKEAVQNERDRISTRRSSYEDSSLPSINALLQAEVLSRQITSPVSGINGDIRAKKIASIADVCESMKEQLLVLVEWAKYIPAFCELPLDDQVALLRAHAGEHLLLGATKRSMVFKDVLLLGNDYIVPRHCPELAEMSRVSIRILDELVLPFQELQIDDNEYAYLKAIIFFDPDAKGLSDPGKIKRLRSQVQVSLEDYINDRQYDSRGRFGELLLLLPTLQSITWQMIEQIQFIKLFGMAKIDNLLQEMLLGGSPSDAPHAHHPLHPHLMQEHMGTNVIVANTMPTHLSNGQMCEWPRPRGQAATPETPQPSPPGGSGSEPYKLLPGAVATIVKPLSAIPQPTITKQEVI
Description: protein-binding microarray. To be noted: COS-7 nuclear extract on double-stranded Agilent 4x180k PBM; binding buffer, salt, pH and temperature not given; high values mean tight binding; double strand, one strand shown; sequences stand for … in …GCCTAGGGAGATTAGAGTATCGGTCGA
With CTCACAGCTCAATCCAACAAATAGACATTC, the binding signal (log2 normalized intensity) was -1.24.
As for AAGGGCTTCAGAGTCGATAGTCCAAATTCT, the binding signal (log2 normalized intensity) was determined as 2.4.
The figure for GTCCACAGAAAGGCAAGAAGTATGACAACA is -1.28.
The figure for GGTTCTGGGGTGATTACCCTTATCTTATCT is 1.35.
Take GAGCCATAGCCCAAGTTCAAAGGTTATCTG: the binding signal (log2 normalized intensity) amounted to 6.78.
Turning to CACAGGTAAACATTTGCCTTTAGGGCCCCC, the binding signal (log2 normalized intensity) was 2.81.
The value for TACCCACGTTTAGGATTAAACACGTTTTAT was 0.633.
On to TACCAACAGGCTTAACATAAAGGGTTGAAG, for which the binding signal (log2 normalized intensity) was -1.32.
Turning to ACCCTTTTGCCCTTTGAGCTTCTGTCTTGG, the binding signal (log2 normalized intensity) was 4.96.
As for CCTCTATCCTCCACAAACAAACAGGGTGGC, the binding signal (log2 normalized intensity) came to 0.0941.
The figure for GGATGACCCAGATAGGCAAAGTGGCTAGGA is -1.29; for CAAGTTGGTTTACATTCTTAGAAGATAAAG it is 0.323.
With TAATTCTGTGTCATCTGAACTCTGACCAAC, the binding signal (log2 normalized intensity) worked out at 4.62.
The figure for CCAAACAAATGGAGAAGGTCTAAGTAAACT is -1.32; for ATCACATTCTAATCCTCTGGTCTTTGCCCC it is 5; for TGACTTTAAGTTGACTCCAATGCTCGTTGA it is 0.874.
The figure for GAGTGGCCTTTAGAACCGGGGAGATACTGT is 0.192; for TGGCCACTGGCCCAGCGGATTAATATCCAG it is -1.28; for ATCAGGGGTCCTGGCAGCACCTGAAGAATT it is -1.43.
The figure for GACCTTTGCCCAAGCCGTTCCCTGTACCTA is 5.12; for AAATAGGCAAGACTGCCACCTACTGACCAA it is -1.29; for ACCTGAAAAACCTCTCTCCAGGTACAAGGA it is -1.24.
Regarding TAACCAGGGAGTGGCAGCATTGTGCTGAAA, the binding signal (log2 normalized intensity) was -1.04.
The value for CATAGCAAGAGTGACCTTTGCTCCAGTTCC was 8.19; that for TGGGCTGTAAAAATCTATGGCAAAGGTCTC was 2.22; that for AAGTCCCAGAAGTTCTAAGGTGGGAATGCT was -1.24.
The figure for AAACCAAGCTGTCCGACTGCACACCGTCCA is -1.13; for AAGCAGAAGCTGCACACATGTCAAAGGTCA it is 6.91; for TGCCTTGGCCTCTGCAGACATGGACTCTGG it is 4.6.
The value for CTGTGCTTTGTTTACTTAACCTTTGATCAT was 7.84; that for AAACCTTTGCCCAACAGGATTAGTGCTTCT was 0.276; that for CCGGACGCGTCCTCGGCTCTGCGCAGGCGC was -1.23.
Turning to GACCCCTCCTCCCCCCGCCGCATCTACCAG, the binding signal (log2 normalized intensity) was 5.7.
The figure for CCAGAGAAGCTGTGTAACCCTGGAGCCATA is -1.27; for TTGGACAAGGTAACCCCCAACATTCTTTCC it is 2.67; for ATTGTTCCCTTGCTCCACCCTTCTATCCCC it is 3.06.
In the case of AGTGCTGCATGCAAAAAGGCTGACCTTTGA, the binding signal (log2 normalized intensity) turned out to be 8.62.
The figure for TGCAGAAAAGGCCCCAGGGATTGCACAGGA is -1.24; for CTGAGTGGAGGCCCAGTAAGTCCCACCCAC it is 2.52; for CATCAGGTGAGATAAGAAGACTCCAGGGGA it is -1.47.
The value for TAGTATCCCTGAGTCATTTTTAGAAGCTCT was -1.26; that for TTTCTCCATACCTCTTGCGTGTTATCTATG was 1.5; that for GCCACCCATCAGTGGACTTTGACCTTGTTT was 10.8.
The value for GGGAGGGGTGGACTTTGGCTTTTCCAAAGG was 5.04; that for ATGGTGACCATGTGATGTGAAGAGTGTGGA was 1.31.
With GTCACCACCTTTTTTGGCCTTTACCCCTTG, the binding signal (log2 normalized intensity) was 5.31.
The figure for AACTGATATGGCTCTGTTTTACAAACACAA is -1.23; for GACACTTCCAGCCAAACCAGGTCATGCATT it is 0.387; for TCTACTGCTCTATTTAGACTCAGCATGTCT it is 0.275.
Consider CTGGGAATGACATTTTGGACTACTTCATGT, for which the binding signal (log2 normalized intensity) was 1.63.
Consider AGCTAATCTAGAGACACTATGTGCATTCCA, for which the binding signal (log2 normalized intensity) was -1.28.
The value for TTCCCAGCTAAATAAATAACTCTAAGAAAT was -1.3; that for CTCACGGTAACAGCCGGAGAGGCAAGTATG was -1.18; that for ACTCAAAGGTCAAATGACAGAAGCAGGACT was 2.24.
Regarding GACATGAAGGACATAAATGTGCCCAGATAA, the binding signal (log2 normalized intensity) is -0.092.
The value for AGAGTCTGACAGAACTAAGCTGTTGCGTAA was -1.3; that for GCTCTCCCATAAGAATCCTTTTCATTCTTT was -0.00663; that for TGTTTATCCTTCAACAATTCTATGAGTAGG was 0.484.
The figure for GGGGCTGGCATGTCTCTGGTCAGGGAGGGC is 0.5.
The figure for TTGGGTGACTTTCTTCCTATGGGATCAAAG is 1.1; for AGCTCTTGCTGGTCAAGCTAAGCACAACTG it is -1.3.
Consider ACTTGCCCTCAGTAAAGGACAAAGTCAACG, for which the binding signal (log2 normalized intensity) came out at 2.02.
As for GGAGGGGAAGAAAGGAATGTGCCTGCAAGT, the binding signal (log2 normalized intensity) was -1.33.
Regarding ACTCTGGGAGCCCTGGGGTAATAAATAAAG, the binding signal (log2 normalized intensity) was -0.97.
The value for TTTCCAAAGAGCAGCTAGCTCCAGTTGGTT was -1.24.
Turning to AGTGGGTCTAGGTTCTGGGGTGATTACCCT, the binding signal (log2 normalized intensity) was 1.92.
The value for TGACCTGGTACTATGACCTTTCACCTTTTA was 7.78; that for GGGGTGGGGAGGATAGCAGCCCAGCAAAGA was -1.26.
The figure for ACATCAGAAGTTGGACTTTGTACATTCCAA is 8.13.
As for TCAGGCCCAGAAACACTGAACCTTGTCCCA, the binding signal (log2 normalized intensity) was determined as 4.01.
The value for TCCGAGCCATTTTGGAGCCGGTGTCAGTTT was 1.18; that for TGCCTGCAGGAGAGAGCAAAGTCCACGCAT was 6.82.
